# Assay results published in PubChem BioAssay AID686979 (National Center for Advancing Translational Sciences (NCATS), 2013).
# The whole screen tested about 420,000 compounds, of which about 50,000 (12%) were called active. Inconclusive results, whose numbers are uncertain, are shown with a selection of clear calls. Calls follow the shape of the dose curve; as a rule, active = well fitted inhibition curve with a large enough effect; inconclusive = small, poorly fitted or top-dose-only effect; inactive = flat fitted curve, though single readings scatter. No potency is given beside an inconclusive call; the fits are too rough.
# Assay: qHTS for Inhibitors of human tyrosyl-DNA phosphodiesterase 1 (TDP1): qHTS in cells in presence of CPT; also: nearly all actives have a fitted effect of over 55% in size
# Conditions: chicken DT40 Tdp1-/-;hTDP1 cells + 20 nM CPT, ATP luminescence, 48 h; activity change, negative = growth inhibition: at 46.2 µM (top of the series)
# In short: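 Chicken DT40 Tdp1-/- cells stably complemented with human TDP1 were seeded at 400 cells/well in medium containing 20 nM camptothecin, exposed to pin-transferred compounds, and grown at 37 °C for at least 48 hr. Viability was read as ATP luminescence.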
# % is scaled to controls: 0 for no effect and ±100 for the full control effect; potency is read from the fitted curve at half-maximal effect; tags tell the direction and shape of the fitted curve.
Compound,Potency,"activity change, negative = growth inhibition"
CCOC(=O)Cc1csc(NC(=O)COc2cc(C)cc(C)c2)n1,inactive,
COc1ccc(/C=N/NC(=O)c2ccccc2NC(=O)c2ccco2)c(OC)c1,inactive,
CCCCn1c(N)c(C(=S)NC(=O)CC(C)(C)C)c(=O)n(C)c1=O,"inconclusive [inhibitor, single point]",
Cc1ccc(Cl)cc1N1CCN(C(=O)c2ccccc2SCC(=O)N2CCCC2)CC1,active: 20.6 µM,
CC(=O)Nc1ccc(OCc2cccc3ccccc23)cc1,inactive,
Cc1cc(C)cc(NC(=O)CSc2nnc(-c3cc4occc4n3C)n2-c2ccccc2C)c1,"inconclusive [inhibitor, single point]",
O=C(O)CCn1c(SCc2cccc3ccccc23)nc2ccccc21,inactive,
O=c1ccc(-c2ccccc2)nn1Cc1ccc(F)cc1,"inconclusive [inhibitor, single point]",
CN(C)c1ncnc2c1NC1=C(S2)C(=NCCCC(=O)O)CC(C)(C)C1,active: 20.6 µM,
CC(C)c1ccc(NC(=O)CSC(C)c2nc3ccccc3c(=O)[nH]2)cc1 (stereo unspecified),inactive,
CC(=O)Nc1ccc(SCC(=O)c2ccc(Br)s2)cc1,"inconclusive [inhibitor, single point]",
C[C@H](NC(=O)c1nc[nH]c1C(=O)NC(c1ccccc1)c1ccccc1)C(=O)OCc1ccccc1,active: 23.1 µM,
COc1ccccc1NC(=O)c1ccc(NC(=O)CSc2ncn[nH]2)cc1,inactive,
CC(=O)Nc1ccc(Nc2cc(C)c3ccccc3n2)cc1,"inconclusive [inhibitor, partial curve, poor fit]",
O=S(=O)(O)c1ccc2nc(-c3ccccc3)[nH]c2c1,"inconclusive [inhibitor, single point]",
CCN(CC)CCNC(=O)c1ccc(Cl)c(S(=O)(=O)N2CCCCCC2)c1,"inconclusive [inhibitor, single point]",
CCOc1ccc(-n2c(-c3ccccc3)c[nH]c2=S)cc1,"inconclusive [inhibitor, single point]",
COc1ccc(-c2cc3ncc(-c4ccccc4)c(N)n3n2)cc1,"inconclusive [inhibitor, full curve, poor fit]",
CC(=O)Oc1ccc(/C=C2\N=C(C3CCCCC3)OC2=O)cc1,"inconclusive [inhibitor, partial curve]",
COCCNC(=O)C1CCCN(Cc2ccc(C(C)C)cc2)CC1 (stereo unspecified),inactive,
O=C1[C@@H](Oc2ccccc2)[C@@H](c2ccccc2)N1c1cccnc1,"inconclusive [inhibitor, single point]",
Cc1ccc(/C=C/C(=O)N2CCc3ccccc3C2)cc1,"inconclusive [inhibitor, single point]",
O=C(COc1ccc(Cl)cc1[N+](=O)[O-])N/N=C/c1cccs1,inactive,
O=C(NC1CCCCC1)c1cc2ccccc2cc1O,inactive,

Compound,Potency,"activity change, negative = growth inhibition"
COC(=O)c1ccc(OC)c(CN2C(=O)N(c3ccc(C(C)=O)cc3)S(=O)(=O)c3ccccc32)c1,active: 14.6 µM,
COc1ccc(C(=O)N2CCN(c3cccc(Cl)c3)CC2)cc1,"inconclusive [inhibitor, partial curve]",
Cc1ccc(C)c2c(/C=C/c3ccc(N(C)C)cc3)ccnc12,"inconclusive [inhibitor, single point]",
Cc1ccc(-c2nc3cccnc3o2)cc1NC(=O)COc1ccc(C(C)(C)C)cc1,active: 14.6 µM,
CCc1cccc(NC(=S)N(CCN(C)C)C(C)c2ccncc2)c1 (stereo unspecified),"inconclusive [inhibitor, single point]",
Cc1ccc(-c2noc(CN(C(=O)COc3cc(C)cc(C)c3C)C(C)C)n2)cc1,active: 23.1 µM,
C#CCNCCS(=O)(=O)N(Cc1ccc(Br)cc1)[C@@H](C)C(=O)O,inactive,
CC(C)NC(=O)C1CCN(Cc2cccc(OCc3ccccc3)c2)CC1,"inconclusive [inhibitor, partial curve, poor fit]",
Cc1noc(C(=O)N2CC3(C)CC2CC(C)(C)C3)c1Cl (stereo unspecified),"inconclusive [inhibitor, single point]",
COc1ccc(-c2noc(CNS(=O)(=O)c3ccc(Br)cc3)n2)cc1OC,"inconclusive [inhibitor, single point]",
CCCCNC(=O)CN1CCN(Cc2ccc3cc(OC)ccc3c2)CC1,"inconclusive [inhibitor, single point]",
C=CCSc1nn2c(=O)c3ccccc3nc2s1,inactive,
COC(=O)c1ccsc1NC(=O)c1ccc(Cl)s1,"inconclusive [inhibitor, single point]",
O=C(Nc1nnc(-c2ccc3c(c2)CCCC3)o1)c1c(F)cccc1F,inactive,
CC1=C(C(=O)N(C(C)C)C(C)C)CC(CC(=O)NC2CCCCC2)C(=O)N1CCC1=CCCCC1 (stereo unspecified),"inconclusive [inhibitor, single point]",
CC(C)(C)SC(=O)C[C@@H]1NS(=O)(=O)OC2CCCCC21 (stereo partly specified),"inconclusive [inhibitor, single point]",
CC(C)CCC(C)N=Cc1c(O)n(Cc2ccccc2)c(=O)c2ccccc12 (stereo unspecified),"inconclusive [inhibitor, single point]",
CCOc1cc2ccccc2cc1C(=O)OCC(=O)Nc1ccc(Br)cc1,inactive,
CC1CCC(C(C)C)C(OCC(O)C[N+]2(C)CCCCC2)C1 (stereo unspecified),"inconclusive [inhibitor, single point]",
CCc1cccc(CC)c1NC(=O)c1cccc(NC(=O)c2ccccc2)c1,"inconclusive [inhibitor, single point]",
O=S(=O)(c1ccccc1Br)N1CCN(c2nc(-c3ccccc3)nc3ccccc23)CC1,"inconclusive [inhibitor, single point]",
FC(F)(F)c1cccc(NC(=S)N2CCN(c3ccccc3)CC2)c1,inactive,
Cc1cccc(OCCSc2nc3ccc(NC(=O)COc4ccccc4)cc3s2)c1,"inconclusive [inhibitor, partial curve]",
C[C@@H]1CN([C@H](C)CO)C(=O)c2cc(Br)cnc2O[C@@H]1CN(C)C(=O)c1ccccc1,inactive,

Compound,Potency,"activity change, negative = growth inhibition"
CCOC(=O)CCc1ccc(NC(=O)/C=C/c2ccc([N+](=O)[O-])o2)cc1,active: 1.84 µM,
Cc1ccccc1-c1nnc(-c2ccc(Cl)cc2)o1,inactive,
Cn1ncc(N=Cc2ccccc2)c1C(=O)Nc1cccc(Cl)c1,"inconclusive [inhibitor, single point]",
Cc1cccc(C)c1NC(=O)CNC(=O)Cc1ccccc1[N+](=O)[O-],inactive,
CC1(c2ccccc2)NC(=O)N(CC(=O)Nc2ccc(N3CCOCC3)cc2)C1=O (stereo unspecified),,inconclusive: -9.47% [inhibitor]
CSc1nc(Oc2ccc3ccccc3c2)c2sccc2n1,"inconclusive [inhibitor, full curve, poor fit]",
Cc1cccc(OCCCn2c(CCNC(=O)C(C)(C)C)nc3ccccc32)c1,"inconclusive [inhibitor, single point]",
CCCCCCCCCCCNC(=O)c1ccoc1C,active: 20.6 µM,
Cc1cc(=O)n2nc(N3CCCC(C(=O)NCCc4ccc(Cl)cc4)C3)sc2n1 (stereo unspecified),"inconclusive [inhibitor, single point]",
CCCN1CCc2nc(N3CCN(c4ncccn4)CC3)ncc2C1,"inconclusive [inhibitor, single point]",
COC(=O)c1c(NC(=O)Cn2nc(C(F)F)cc2C(F)F)sc(C)c1C,"inconclusive [inhibitor, single point]",
Cc1nc2cc(-c3ccccc3)nn2c(C)c1CCC(=O)NC(C)c1ccc2c(c1)OCCO2 (stereo unspecified),"inconclusive [inhibitor, single point]",
COc1ccc(CCN2C(=O)C3C4C=CC(C3C2=O)C2C(=O)N(CCc3ccc(OC)c(OC)c3)C(=O)C42)cc1OC (stereo unspecified),active: 10 µM,
Cc1cc(C)nc(-n2nc(C)cc2NC(=O)CN2CCCC(C)C2)n1 (stereo unspecified),"inconclusive [inhibitor, single point]",
COc1ccc(S(=O)(=O)Nc2cc3c(cc2NCc2ccccc2)n(C)c(=O)n3C)cc1,active: 8.2 µM,
COc1ccc(S(=O)(=O)Nc2cc3c4c(c2)CCN4C(=O)CC3)cc1C,"inconclusive [inhibitor, single point]",
COC(=O)CCC(=O)OC1(C)C(=O)C2=CN(Cc3ccc(OC)cc3)C(c3ccc(OC)cc3)=CC2=C(Br)C1=O (stereo unspecified),"inconclusive [inhibitor, single point]",
CCOCCCNC(=O)C(=O)Nc1c2c(nn1-c1ccc(OC)cc1)CSC2,"inconclusive [inhibitor, single point]",
N#Cc1ccsc1NC(=O)C1CCN(C(=O)c2ccc(Cl)cc2)CC1,"inconclusive [inhibitor, single point]",
CC(C)c1c(O)cc(-c2ccncc2)n(-c2ccc(Cl)cc2)c1=O,"inconclusive [inhibitor, single point]",
O=C(c1ccc(Cl)c([N+](=O)[O-])c1)N1CCCc2ccccc21,"inconclusive [inhibitor, single point]",
COc1cccc(C(=O)N2CCC2(C)C(=O)O)c1 (stereo unspecified),inactive,
COc1ccc(CN(Cc2ccco2)c2cnc(S(C)(=O)=O)nc2C(=O)Nc2ccc(C)cc2C)cc1,"inconclusive [inhibitor, single point]",
